Laboratory results taken from PubChem BioAssay AID1508623 (National Center for Advancing Translational Sciences (NCATS), 2021).
Among all 48,000 compounds or so, about 450 (0.94%) were called active. Inconclusive results (about 19%) are left out. Calls follow the shape of the dose curve; as a rule, active = well fitted inhibition curve with a large enough effect; inconclusive = small, poorly fitted or top-dose-only effect; inactive = no such curve, though single readings can be large or run the other way. The list shows a part of the results.

experiment: Primary qHTS for Identification of Small Molecule Inhibitors of Huntingtin Promoter Activity; conditions: HEK293 HTT promoter firefly luciferase reporter (activity 0% = vehicle and -100% = no light), 24 h; series mostly up to 57.5 µM; activity change, negative = inhibition: at the top concentration; also: nearly all actives have a fitted effect of over 50% in size
In short: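 Quantitative HTS used concentration series of up to 57.5 uM final on HEK293 luciferase reporter cells, 24 h at 37 degrees C. Readout was Dual-Glo firefly luminescence.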

Activity change, negative = inhibition, inactive:
COc1ccc(-c2nc3sc(CCNC(=O)C(=O)Nc4ccc(C)c(C)c4)c(C)n3n2)cc1 -34.3%
CCOC(=O)c1cc(-c2ccccc2)n(CC(=O)NCc2ccccc2)c1C -18.6%
Cc1ccc(C)c(Cn2c(=O)n(CCCC(=O)NCCc3ccc(Cl)cc3)c(=O)c3ccccc32)c1 -11.4%
O=C(COc1ccc(Cl)cc1)NCC(c1cccs1)S(=O)(=O)c1ccc(F)cc1 (stereo unspecified) -29.3%
CCOc1ccc(-c2nonc2NC(=O)c2ccco2)cc1OCC -25.3%
CCOC(=O)c1ccc(NC(=O)CC2C(=O)N(c3cccc(C)c3)C(=O)N2CCOC)cc1 (stereo unspecified) -14.8%
COc1ccc(OC)c(-c2csc(-c3c(N)c(C(=O)c4ccc(Cl)cc4)n4ccccc34)n2)c1 -29.3%
CCOc1cc(CNC(=O)NC2COc3ccccc3C2)cc(OCC)c1OCC (stereo unspecified) -2.75%
Cc1ccc(OCC(=O)Nc2nnc(SCc3cc(=O)n4cccc(C)c4n3)s2)cc1 6.87%
COc1ccc(C(=O)Nc2nnc(S(=O)(=O)N(C)c3ccc(C)cc3)s2)cc1 7.22%
CCc1ccccc1Nc1ncnc2c1cnn2-c1ccc(C)cc1C -2.36%
COc1ccc(C(=O)Nc2nnc(S(=O)(=O)N3CCN(c4ccc(F)cc4)CC3)s2)cc1 -0.601%
CC(C)COc1ccc(C(=O)Nc2nnc(S(=O)(=O)N(C)Cc3ccco3)s2)cc1 7.49%
COc1cccc(CNC(=O)c2cc3c(=O)n(Cc4cccnc4)ccc3nc2C)c1 -29.6%
CCc1cccc(NC(c2ccccc2)c2nnc(-c3ccccc3F)o2)c1 (stereo unspecified) 7.18%
CCOC(=O)c1c(C)[nH]c(C)c1S(=O)(=O)N1CCCC(C(=O)NCc2ccccc2Cl)C1 (stereo unspecified) -27.8%
CC(=O)Nc1ccc(OCC(O)CNC(C)C)cc1 (stereo unspecified) 8.29%
COc1ccccc1CNC(=O)CN(c1ccccc1OC)S(C)(=O)=O -8.53%
CCC(C)NC(=O)Cn1c(=O)n(-c2ccc(OC)c(OC)c2)c(=O)c2ccccc21 (stereo unspecified) -16.4%
Cc1ccc2c(c1)Cc1c(nc(-c3ccc(F)cc3)nc1SCC(=O)N1CCCCC1)O2 -12.5%
Cc1ccc(Nc2c(-c3cccnc3)nc3ccc(Cl)cn23)cc1 -14.5%
CCOC(=O)C1CCN(C(=O)c2c(C)nn(-c3ccc(F)cc3)c2-n2cccc2)CC1 -28.3%
COc1ccc2cc(CCNS(=O)(=O)c3ccc(C)cc3)c(=O)[nH]c2c1 -16.1%
CCCc1nnc(NC(=O)Cc2coc3c(C)c(C)ccc23)s1 -8.07%
O=C(COCc1cc(-c2cccs2)on1)NCc1ccc(F)cc1 -12.7%
O=C(Nc1ccc(Cl)cc1)c1ccc(-n2cnnc2)cc1 -3.27% [at 11.5 µM]
Cc1ccc(-n2ncc3c(N4CCN(Cc5ccccc5)CC4)ncnc32)cc1Cl -14.4%
CCc1cc(=O)[nH]c(SCc2nc(-c3cccc(Cl)c3)no2)n1 -14.3%
CC(C)c1ccc(NC(=O)C2CCCN2S(=O)(=O)c2ccc3nc(-c4ccccc4)[nH]c3c2)cc1 (stereo unspecified) -28.1%
COc1ccc(C(=O)N(Cc2sccc2C)C2CCS(=O)(=O)C2)cc1 (stereo unspecified) -10.2%
COc1cc(NC(=O)Cn2ccc3ccccc3c2=O)cc(OC)c1OC -25%
CCc1ccc(C2C(C(=O)Nc3ccccc3OC)=C(C)Nc3nc(SCc4ccccc4)nn32)cc1 (stereo unspecified) -2.7%
CCOc1ccc(CNC(=O)CN2N=C(c3ccccc3)CCC2=O)cc1OC -7.71%
Cc1ccc(-n2ncc(C(=O)NCCN3CCN(C)CC3)c2C2CCN(C(=O)OC(C)(C)C)CC2)cc1 -12%
Cc1nc(C)c(-c2ccc(SCC(=O)Nc3cccc(C)c3C)nn2)s1 -11.3%
Cn1c(C(=O)NCCc2ccccc2)cc2sc(Cl)cc21 30.7%
Cc1ccccc1C(=O)NNc1ncnc2c1cnn2-c1cccc(Cl)c1 -28.8%
Cc1ccc(Cn2c(CNC(=O)c3ccc(Cl)c([N+](=O)[O-])c3)nc3cccnc32)cc1 -19.4%
CCCc1ccc(NC(=O)C2CCCN(c3cnccn3)C2)cc1 (stereo unspecified) 0.638%
CCc1ccc(NC(=O)C2CCN(S(=O)(=O)c3cccc(-c4noc(C)n4)c3)CC2)cc1 -29.3%
COc1cccc(-c2oc3ccc(C)cc3c(=O)c2O)c1 51.8%
Cc1noc(C)c1S(=O)(=O)N(CC(=O)NCCc1ccc(Cl)cc1)c1ccc(C(C)C)cc1 -1.54%
CCOc1cccc2sc(NC(=O)CS(=O)(=O)c3ccc(C)cc3)nc12 -14%
CCN(Cc1ccccc1)S(=O)(=O)c1ccc(F)c(C(=O)Nc2cc(C(F)(F)F)ccc2Cl)c1 -23.7%
COc1ccc(N2C(=O)CSC23C(=O)N(CC(N)=O)c2ccccc23)cc1 (stereo unspecified) 30.3%
COc1ccc(-n2c(=O)c3sc4ccccc4c3n(CC(=O)NC3CCCCC3)c2=O)cc1 -14.2%
COC(=O)c1ccc([C@H]2Nc3ccc(S(=O)(=O)Nc4cccc(C)c4)cc3[C@H]3C=CC[C@H]32)cc1 -26%
COCCNC(=O)CCCn1c(SCc2ccccc2Cl)nc2c(sc3ccccc32)c1=O -9.79%
COc1ccccc1C1CC(=O)N(c2cccc(C(F)(F)F)c2)C2=C1C(=O)OC2 (stereo unspecified) -18.1%
CCCCOc1ccc(C(=O)N(Cc2ccco2)Cc2ccco2)cc1 -9.5%
Cc1ccc(/C=N/n2c(-c3ccccc3)csc2=S)cc1 -1.64%
Cc1cccc(N(CC(N)=O)C2SC(=O)N(Cc3cccc(C(=O)O)c3)C2=O)c1 (stereo unspecified) -5.05%
CCC(=O)Nc1nnc2n1CCS2 -9.14%
Cc1cc(Br)cc2c(C(=O)OCC(=O)c3ccccc3)cc(-c3ccccc3)nc12 -8.23%
Cc1c(-c2nnc(SCC(=O)Nc3ccc(Cl)cc3)o2)nnn1-c1ccc(F)cc1 11.2%
CCN1CCSc2ccc(C(=O)NCc3ccccc3Br)cc21 -20.2%
O=c1[nH]c(SCc2cccc(Cl)c2)nc2c1CCC2 0.451%
COc1ccc(Cn2c(CO)cnc2SCc2cccc(C)c2)cc1 22.5%
COc1ccccc1N1CCN(C(=O)CCS(=O)(=O)c2cc(Br)cc3c2N(C(C)=O)CC3)CC1 -13%
Cc1cc(C)c2oc(-c3ccc(C)c(NC(=O)/C=C/c4ccco4)c3)nc2c1 -0.973%
Cc1nc(N2CCCC2)ncc1C(=O)N1CCN(c2ccccc2F)CC1 -5.37%
COc1cccc(-c2nc(S(=O)(=O)c3ccccc3)c(N3CCC(C)CC3)o2)c1 -18.8%
Cc1ccc(C(=O)n2nc(C)c(S(=O)(=O)N3CCOCC3)c2C)cc1C -19.4%
Cc1ccc(NC(=O)c2nnn(CC(=O)Nc3ccc(C)c(Cl)c3)c2N)c(C)c1 5.85%
O=c1c2ccccc2nc(-c2ccc(Cl)cc2)n1CCCOc1ccccc1F -3.74%
COc1cc(C(=O)NCCc2csc3nc(-c4ccccc4C)nn23)cc(OC)c1OC -17.5%
CC(C)c1ccc(NC(=O)CC2Oc3ccccc3NC2=O)cc1 (stereo unspecified) -20.7%
O=C(OC1C[C@H]2CC[C@@H](C1)[N+]21CCCC1)C(O)(c1ccccc1)c1ccccc1 (stereo partly specified) 38.6%
Cc1ccc(Cl)cc1NC(=O)CN1C(=O)COc2ccc(S(=O)(=O)N3CCCCCC3)cc21 -19.4%
COc1ccccc1CCNC(=O)CCc1c(C)c2cc3c(C)c(C)oc3cc2oc1=O -2.85%
Cc1ccc(NC(=O)C(=O)NCC(c2ccc3c(c2)OCO3)N2CCN(c3ccccc3)CC2)cc1 (stereo unspecified) -1.33%
CCN(C(=O)C(Cc1ccccc1)NS(=O)(=O)c1cccc2nsnc12)c1ccccc1 (stereo unspecified) -31.1%
COc1ccc(NC(=O)CSc2nc(-c3ccc(F)cc3)c3cccc(C)c3n2)cc1 -2.89%
COc1ccc(CCNC(=O)c2ccc(Cn3c(=O)c4ccccc4n(Cc4ccc(C)cc4)c3=O)cc2)cc1OC 4.01%
Cc1ccc2nc(CN3CCN(C(=O)Nc4ccc(C)c(F)c4)CC3)oc2c1 -18.8%
COCCCn1c(SCC(=O)Nc2ccccc2OC)nc2c(sc3ccccc32)c1=O 11.1%
CCCCN(C)CCCNC(=O)c1cc(-c2cccnc2)nc2ccccc12 -20.9%
COC(=O)c1ccc(OC)c(Cn2c(=O)n(-c3cccc(Cl)c3)c(=O)c3c4c(sc32)CN(C(C)=O)CC4)c1 -14.5%
COc1ccc(-c2oc3ncn4nc(COc5ccccc5C)nc4c3c2-c2ccc(OC)cc2)cc1 -1.42% [at 11.5 µM]
CCOC(=O)C1CCCN(C(=O)Cn2ncn3c(cc4sc(CC)cc43)c2=O)C1 (stereo unspecified) -17.2%
O=C(Nc1ccc(F)cc1)[C@@H](c1ccccc1)N1Cc2ccccc2C1=O -9.23%
CCC(C)NC(=O)c1[nH]c2cc(C)ccc2c1Sc1ccc(Cl)cc1 (stereo unspecified) 31.4%
CCOc1cc2[nH]c(=O)n(CCCCC(=O)N3CCN(c4ccccc4)CC3)c(=O)c2cc1OCC -14.6%
Cc1cccc(C)c1OCC(=O)Nc1c(C(=O)c2ccc(Br)cc2)oc2ccccc12 0.397%
COc1ccc2oc(=O)c(-c3cn4c(n3)sc3cc(F)ccc34)cc2c1 -10.4%
CCCn1c2ccccc2c2cnn(CC(=O)N(Cc3ccccc3)C(C)C)c(=O)c21 -1.65%
CCCCOc1ccc(S(=O)(=O)NCc2csc(-c3ccc(OC)cc3)n2)cc1 -28.5%
COc1ccc(CC(=O)NCC(c2cccs2)S(=O)(=O)c2ccc(Cl)cc2)cc1 (stereo unspecified) -21.4%
CCN(CC)CC1CCCCN1CC(=O)N1c2ccccc2C(=O)Nc2cccnc21 (stereo unspecified) 5.13%
CCC(C(=O)Nc1cc(OC)ccc1OC)n1c(C)c2cnn(-c3ccccc3)c(=O)c2c1C (stereo unspecified) -16.8%
COc1ccc(-n2ccn(CC(=O)NCc3ccc(C)cc3)c(=O)c2=O)cc1OC -0.43%
Cc1ccc(S(=O)(=O)NCCc2nnc3ccc(SCc4ccc(F)cc4)nn23)cc1 -23.6%
Cc1ccc2oc(C(=O)Nc3cccc(-c4nc5ccccc5s4)c3)c(C)c2c1 3.73%
Cc1ccc(Nc2ncc(C(=O)N3CCN(c4cccc(Cl)c4)CC3)c3ccccc23)cc1Cl -3.19%
COc1ccccc1Cn1cc(C(=O)c2ccc(F)cc2)c(=O)c2cc3c(cc21)OCO3 9.85%
COc1ccccc1C(=O)c1cn(CC(=O)Nc2ccccc2F)c2nc(C)ccc2c1=O 1.97%
